Data from PubChem BioAssay AID1346428 (National Center for Advancing Translational Sciences (NCATS), 2018).
Out of some 48,000 compounds screened, about 1,200 (2.5%) were called active. Not shown: some 2% with an inconclusive outcome.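 How the source made its calls: active means activation of at least 60% and not above a set upper limit (about 1 call in 100 departs from these limits); inconclusive means activation of 40% to 60%, or above that upper limit; inactive means activation under 40%.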 Some of the results follow.

molecular target: Probable G-protein coupled receptor 32 (Homo sapiens) (UniProt O75388); assay: qHTS for Agonists of Human Resolvin D1 Receptor DRV1; details: CHO-K1 GPR32 beta-arrestin PathHunter luminescence, 90 min; at 76.9 µM; hits give high values; zero percent set by DMSO-only wells; further: 0% is about no effect
Chain of UniProt O75388 (O75388 whole entry, looked up, the tested form may be a part): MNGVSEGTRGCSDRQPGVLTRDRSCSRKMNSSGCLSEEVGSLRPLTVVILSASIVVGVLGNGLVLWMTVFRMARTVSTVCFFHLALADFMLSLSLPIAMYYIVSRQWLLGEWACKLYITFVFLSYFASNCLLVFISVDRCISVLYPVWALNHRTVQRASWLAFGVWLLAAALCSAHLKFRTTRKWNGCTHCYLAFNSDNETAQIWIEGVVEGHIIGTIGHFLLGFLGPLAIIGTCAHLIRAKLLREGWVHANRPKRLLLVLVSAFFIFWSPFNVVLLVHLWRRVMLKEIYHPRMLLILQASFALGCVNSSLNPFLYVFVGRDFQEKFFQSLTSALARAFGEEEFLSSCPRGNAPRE
How it was run: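 Agonism was scored as beta-arrestin recruitment to ProLink-fused GPR32 in stably transfected CHO-K1 cells, giving a chemiluminescent beta-Gal signal; compounds were incubated 90 min at 37 °C.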

activation, active:
Cc1cccc(CN2CCN(CC(=O)NCCc3ccc(Cl)cc3)C2=O)c1 74.8%, O=C(NCc1ccc(Cl)cc1)C1CCC(CNS(=O)(=O)c2ccccc2)CC1 (stereo not drawn) 83%, Cc1c(Cl)ccc2sc(N3CCN(C(=O)C4CC4)CC3)nc12 76.5%

activation, inactive:
CCOC(=O)c1ccccc1NC(=O)c1cc2ccc3cccnc3c2[nH]1 -17.3%, CCOC(=O)COc1ccc(C)cc1C(=O)c1ccn2nc(-c3ccc(Cl)cc3)cc2n1 -6.7%, CC(C)NC(=O)c1ccc2c(c1)nc1n2CCCCC1 -9.7%, CCc1ccc(/C=C(/C#N)c2nc(-c3ccc(C)cc3)cs2)cc1 13.2%, O=C(C1CC1)N1CCc2cc(Br)cc(S(=O)(=O)Nc3ccc(F)c(F)c3)c21 37.6%, Cc1cc(C)cc(N2CCn3c2nc2c3c(=O)n(Cc3c(F)cccc3Cl)c(=O)n2C)c1 1.02%, O=S(=O)(NCC(c1ccco1)N1CCN(c2ccccc2)CC1)c1cc(F)ccc1F (stereo not drawn) -23.4%, CCc1ccc2oc(-c3ccc(C)c(NC(=O)Cc4ccccc4)c3)nc2c1 16.8%, O=C(Cn1c(=O)c(CNc2ccccc2)cc2cc3c(cc21)OCCO3)Nc1ccccc1Cl -33.2%, CC(C)(C)OC(=O)N1CCC(c2c(C(=O)NCCN3CCOCC3)cnn2-c2cccc(Cl)c2)CC1 -10.8%, Cn1c(=O)c2c(nc(CN3CCN(c4ccccc4F)CC3)n2Cc2ccc(F)cc2)n(C)c1=O -19.9%, Cc1nn(C)c2c1c(C(F)(F)F)cc(=O)n2Cc1ccc(Br)cc1F -0.0942%, CCOc1ccc(N(Cc2ccccc2)C(=O)c2nc(SC)ncc2Cl)cc1 -32.4%, O=c1c(S(=O)(=O)c2ccccc2)cn(Cc2ccccc2)c2cc(N3CCCC3)c(F)cc12 -11.7%, Cc1cc(C)cc(C(=O)NCCc2sc(-c3ccc(F)cc3)nc2C)c1 -11.2%, Clc1ccc(C(c2ccc(Cl)cc2)n2cc[n+](CC(OCc3ccc(Cl)cc3Cl)c3ccc(Cl)cc3Cl)c2)cc1 (stereo not drawn) -3.48%, Cc1cccc(NC(=O)CSc2nc3n[nH]c(C)c3c(=N)n2-c2cccc(Cl)c2)c1 -12.5%, N#Cc1ccc(NC(=O)COCc2cc(-c3ccco3)on2)cc1 -14.2%, CCOC(=O)C1CCN(CCC(=O)Nc2ccccc2OC)CC1 -4.56%, COc1ccc(OC)c(C2CC(=O)Nc3c2c(=O)[nH]c2nc4ccccc4n32)c1 (stereo not drawn) 3.02%, Cc1cc(C)c(NC(=O)c2oc3c(c2C)-c2[nH]ncc2CC3)c(C)c1 -2.85%, Cc1ccc(C(=O)Nc2ccc(C(=O)O)cc2)cc1S(=O)(=O)N1CCC(C)CC1 0.872%, Cc1cccc(-c2nc3scc(CCNS(=O)(=O)c4ccc(F)c(C(F)(F)F)c4)n3n2)c1 -0.876%, CCCCOc1ccc(C(=O)NCc2cn3cccc(C)c3n2)cc1 -9.98%, CCOC(=O)c1ccccc1NC(=O)CN1C(=O)CC(c2ccccc2)Sc2ccccc21 (stereo not drawn) -2.42%, Fc1ccccc1N1CCN(c2ncnc3onc(-c4ccc(Cl)cc4)c23)CC1 -3.45%, COc1ccc(Cl)cc1NC(=O)CSc1nc2c(oc3ccccc32)c(=O)n1Cc1ccco1 0.997%, Cc1ccc(NC(=O)/C=C/c2ccco2)cc1F -4.77%, CCOc1ccc(N(C)C(=O)C2CCN(S(=O)(=O)c3c(C)noc3/C=C/c3ccc(C)cc3)CC2)cc1 -23.5%, CCN(CC)c1nn2c(=O)c(C(=O)NCCc3ccccc3C)cnc2s1 -5.44%, CCCCOc1ccc(C(=O)NCCc2sc3nc(-c4ccc(OC)cc4)nn3c2C)cc1 -0.469%, CCOc1cc2c(cc1OCC)C(CC(=O)O)N(C(=O)Nc1ccc(Br)c(C)c1)CC2 (stereo not drawn) -15%, O=C(Nc1ccc(N2CCN(c3ccc(F)cc3)CC2)c(C(=O)O)c1)c1cccs1 1.7%, COc1ccc(NC(=O)c2ccco2)cc1NC(=O)c1ccc(C#N)cc1F 45.2%, Cc1c(C(=O)Nc2ccc(F)c(Cl)c2)sc2nc3n(c(=O)c12)CCC3 -10.5%, CCCNC(=O)c1cnn(-c2ccc(C)c(C)c2)c1C1CCN(C(=O)OC(C)(C)C)CC1 -10.8%, COc1ccccc1N1CCN(c2ncnc3c2cnn3-c2ccc(C)cc2)CC1 0.586%, COCCn1c(SCC(=O)c2ccc(C)cc2)nc2cc(C(=O)NC3CCCC3)ccc2c1=O 5.98%, FC(F)(F)c1cc(Nc2nc3ccccc3c3nncn23)ccc1Cl -3.3%, O=C(NCCc1ccccc1)C1CCN(c2nc3ccccc3nc2C(F)(F)F)CC1 -20.9%, CCOc1ccc(N(CC)S(=O)(=O)N2CCCC(C(=O)Nc3ccc(OC)c(Cl)c3)C2)cc1 (stereo not drawn) -8.84%, COc1cccc(NC(=O)CSc2c3c(nc4ccccc24)CCCC3)c1 37.9%, Cc1cccc(NC(=O)CN2C(=O)CSc3ccc(S(=O)(=O)N4CCCC4)cc32)c1C -14.6%, COc1ccc(-c2cc3nc(C)c(CCC(=O)NC(C)c4ccccc4)c(C)n3n2)c(OC)c1 (stereo not drawn) -0.868%, COc1ccc(-c2onc(C)c2C)cc1S(=O)(=O)N1CCN(c2cc(C)ccc2C)CC1 -2.64%, COC(=O)CC(=O)CSc1nc2cc(C(=O)NCC(C)C)ccc2c(=O)n1CCc1ccccc1 -15.9%, O=C(Nc1ccccc1C(F)(F)F)N1CC=C(c2c[nH]c3ccccc23)CC1 -20.4%, Cc1nn(C(=O)c2cccc([N+](=O)[O-])c2C)c(C)c1S(=O)(=O)N1CCCCCC1 -9.71%, CC1CCN(S(=O)(=O)c2ccc3c(c2)CCN3C(=O)Nc2ccc(Br)cc2F)CC1 -29.1%, Cc1cccc(NC(=O)N2CCC(CN3CCCCCC3)CC2)c1C -18%, CCc1ccccc1NC(=O)Cn1nc(N2CCN(c3ccccc3OC)CC2)ccc1=O 40.8%, CCOc1ccccc1C(=O)N1CCC(c2nc3ccccc3o2)CC1 0.637%, COc1ccc(OC)c(NC(=O)CC(=O)Nc2ccc3nc4n(c(=O)c3c2)CCCCC4)c1 -6.22%, Cc1nc(SCC(=O)Nc2ccc(C(=O)O)cc2)n[nH]1 1.6%, Cc1ccc(C2CCN(C(=O)c3cnn(-c4ccc(C)c(C)c4)c3C3CCN(C(=O)OC(C)(C)C)CC3)C2)cc1 (stereo not drawn) -8.43%, CN(C)CCCO[C@@H]1[C@H]2OC(C)(C)O[C@H]2O[C@@H]1C(O)CO (stereo partly drawn) 2.72%, O=C1c2ccccc2S(=O)(=O)N1CCCCN1CCN(c2ncccn2)CC1 0.0021%, Cc1cc(C)c(OCCOCCn2c(-c3ccc(Cl)cc3)nc3ccccc3c2=O)c(C)c1 -8.9%, Cc1cccc(C(C)C)c1NC(=O)c1ccc2c(c1)CCN2S(C)(=O)=O 6.1%, Cc1nn2c(=O)cc(COC(=O)c3cccc(NC(=O)c4ccc(F)cc4)c3)nc2s1 20.5%, Cc1ccc(Cl)cc1NC(=O)Cn1c(=O)n(C(C)C)c(=O)c2oc3ccccc3c21 -9.12%, Cc1cccc(Nc2nnc(-c3ccc(C)c(S(=O)(=O)N4CCN(C)CC4)c3)c3ccccc23)c1 -22.5%, Cc1ccc(-n2nc(-c3ccccc3)c3cnc4cc5c(cc4c32)OCO5)cc1C 14%, CC(C)CCNC(=O)C(=O)Nc1c2c(nn1-c1ccc(Cl)cc1)CSC2 -14.7%, CCn1c(CN2CCC(C)CC2)nc2cc(NC(=O)c3ccc([N+](=O)[O-])cc3)ccc21 4.54%, O=C(O)CCc1ccc(-c2ccccc2)n1-c1ccc(C(=O)O)cc1 -2.17%, CC(=O)Nc1cccc(NC(=O)CSc2ccc(-c3sc(-c4ccccc4)nc3C)nn2)c1 22.3%, COc1cccc(NC(=O)c2oc3ccc(S(=O)(=O)N4CCCCCC4)cc3c2C)c1 6.33%, CCOc1ccc(S(=O)(=O)N2CCC(c3ccncc3)CC2)cc1 13%, Cc1cc(C)n(-c2nc(C)c(C)c(=O)n2CC(=O)Nc2cccc([N+](=O)[O-])c2)n1 -14.6%, CCOC(=O)c1ccc(NC(=O)Cn2c3ncccc3c(=O)n2-c2ccc(C)c(C)c2)cc1 -21.4%, COc1ccc(-c2cc(C(=O)NCCc3ccc(OC)c(OC)c3)c3c(-c4ccc(F)cc4)[nH]nc3n2)cc1 8.97%, COC(=O)c1ccccc1NC(=O)c1nn(-c2ccc(OC)cc2)c(=O)c2c1c1ccccc1n2C -10.4%, CCCCCCCCCCCCCCCCCC(=O)OC(CC(=O)O)C[N+](C)(C)C (stereo not drawn) 15.8%, COc1cccc(NC(=O)C2CCN(S(=O)(=O)c3ccc4[nH]c5c(c4c3)CCCCC5)CC2)c1 0.0371%, CCOC(=O)C(C)Sc1nc(-c2ccccc2)ccc1C#N (stereo not drawn) 21.4%, COc1ccccc1NC(=O)C1CCCN(c2ncnc3onc(-c4ccc(F)cc4)c23)C1 (stereo not drawn) -8.47%, CCC(C)NC(=O)c1c(C)oc2nc(C)nc(N3CCOCC3)c12 (stereo not drawn) -11%, Cc1ccc(NC(=O)c2ccc3snnc3c2)cc1C 27.2%, Cc1cc(Nc2ccc(Br)c(C)c2)n2nc(-c3ccco3)nc2n1 13.9%
